Assay results taken from patent US4117136A, “Systemic antimicrobial quinolines for plant disease” (Sumitomo Chemical Company, Ltd., priority 1976, dated 1978).
Counter-ions that a name gives are not always drawn. Like-named read-outs stand apart in the source and are kept apart here.

Columns and labels:
[1] = test system: Soft Rot of Chinese Cabbage Caused by E. aroideae; format: in vivo; conditions: for effect for preventing the occurrence of soft rot disease of Chinese cabbage: result in words, Erwinia aroideae, Table 2; for Severity of Disease: spray, 3 days before inoculation
Excerpt: […] Two flower pots with two plants in each were used for each treatment.

[2] = test system: Soft Rot of Chinese Cabbage Caused by E. carotovora; format: in vivo, Erwinia carotovora (on Chinese cabbage); conditions: for Severity of Disease: sprayed at 500 ppm 16 hours after inoculation; for effectiveness in preventing and eradicating soft rot disease of Chinese cabbage: result in words, E. carotovora

| SMILES | effect for preventing the occurrence of soft rot disease of Chinese cabbage [1] | Severity of Disease ([1]; 500 ppm active ingredient) [%] | Severity of Disease ([1]; 200 ppm active ingredient) [%] | Severity of Disease ([1]; 100 ppm active ingredient) [%] | Severity of Disease [2] | effectiveness in preventing and eradicating soft rot disease of Chinese cabbage [2] |
| --- | --- | --- | --- | --- | --- | --- |
| CCn1cc(C(=O)O)c(=O)c2ccc(C)nc21 [Nalidixic acid, nalidixic acid, reference compound] | no effect | 100 | – | – | – | – |
| Nc1ccc(S(N)(=O)=O)cc1 [sulfamine, reference compound] | no effect | 100 | – | – | – | – |
| [H]/N=C(/N)N[C@H]1[C@H](O)[C@@H](O)[C@H](O[C@@H]2O[C@@H](C)[C@](O)(C=O)[C@H]2O[C@@H]2O[C@@H](CO)[C@H](O)[C@@H](O)[C@@H]2NC)[C@@H](N/C(N)=N\[H])[C@@H]1O [Streptomycin Sulfate, reference compound] | – | – | 14 | – | – | – |
| O=C(O)c1cn(CC(F)(F)F)c2cc3c(cc2c1=O)OCO3 [(6)] | – | 0 | – | 0 | 0 | – |
| CCn1cc(C(=O)OC)c(=O)c2cc3c(cc21)OCO3 [(2)] | – | 0 | – | 7 | 12 | highly effective |
| N=C(NCCCCCCNC(=N)NC(=N)Nc1ccc(Cl)cc1)NC(=N)Nc1ccc(Cl)cc1 [chlorhexidine, reference compound] | no effect | 100 | – | – | – | – |
| O=C(O)c1cn(CCCl)c2cc3c(cc2c1=O)OCO3 [Compound (9)] | – | 0 | – | 0 | 0 | – |
| COn1cc(C(=O)O)c(=O)c2cc3c(cc21)OCO3 [(3)] | – | 0 | – | 9 | 0 | – |
| O=C(O)c1cn(CCO)c2cc3c(cc2c1=O)OCO3 [(5)] | – | 0 | – | 14 | – | – |
| COn1cc(C(=O)O)c(=O)c2c3sc(=O)n(C)c3ccc21 [(10)] | – | 0 | – | 12 | 0 | – |
| CCn1c(C)c(C(=O)O)c(=O)c2cc3c(cc21)OCO3 [(11)] | – | 0 | – | 4 | 12 | highly effective |
| CCn1cc(C(=O)O)c(=O)c2cc3c(cc21)OCO3 [Compound (1)] | – | 0 | – | 0 | 0 | – |
| O=C(O)c1cn(CCF)c2cc3c(cc2c1=O)OCO3 [Compound (7)] | – | 0 | – | 0 | 0 | – |
| CCOC(=O)c1cn(CCF)c2cc3c(cc2c1=O)OCO3 [(8)] | – | 0 | – | 0 | 8 | highly effective |
